In PubChem BioAssay (Tox21):
Where “and” joins values, the source holds several entries; their conditions need not be identical. Equal values may be shown once. Inconclusive means that the source gave no clear call. Such entries were picked first, then a sample of the others. A potency beside an inconclusive call is a rough fit, not a confirmed value. Where a structure was tested more than once in an assay, its records may differ in their call. Calls of active or inactive are those of the source. Unless noted, the call rests on the fitted dose curve; in most records, active means well fitted curve in the direction sought with a large enough effect in the repeat runs; inconclusive means weak or mixed curves; inactive means no such curve, though single readings can be large; an effect the other way counts as inactive or inconclusive.

Tests used:
[1] = qHTS assay to identify small molecule agonists of H2AX - cell viability counter screen (AID 1224847; calls by dose curve; further: nearly all actives have a fitted effect of over 30% in size); details: CHO-K1 viability, CellTiter-Glo luminescence, 3 h; series mostly up to 154 µM
How it was run: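 Counter-screen for viability: CellTiter-Glo ATP luminescence read after 3 h compound treatment (15-point titration, 0.76% DMSO final) of CHO-K1 cells at 37C, with 30 min room-temperature reagent incubation.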

[2] = qHTS RealTime-Glo MT Cell Viability Assay in HEK293 cells - 32 hour (AID 1224868); details: RealTime-Glo luminescence; series mostly up to 76.8 µM; further: nearly all actives have a fitted effect of over 50% in size
How it was run: (§1)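 Luminescence generated by NanoLuc from substrate produced by living HEK293 cells served as the viability signal. Each value reflects the reading at its stated time point during continuous 40 h compound exposure at 37 C.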

[3] = qHTS RealTime-Glo MT Cell Viability Assay in HEK293 cells - 16 hour (AID 1224872); details: RealTime-Glo luminescence; series mostly up to 76.8 µM; further: nearly all actives have a fitted effect of over 50% in size
How it was run: as §1

[4] = qHTS RealTime-Glo MT Cell Viability Assay in HEK293 cells - 40 hour (AID 1224874); details: RealTime-Glo luminescence; max response: stronger effect = lower value; further: nearly all actives have a fitted effect of over 50% in size; on max response: on the % scale 0 is the no-effect control and ±100 the full control effect
How it was run: (§2)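 600 HEK293 cells per well, dispensed already mixed with RealTime-Glo MT reagents. Compound dosing came 5 h later. The same wells were read for luminescence at 0, 8, 16, 24, 32 and 40 h of exposure at 37 C.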

[5] = A CellTox Green Cytotoxicity Assay to monitor cytotoxicity in HepG2 cells - 40 hour (AID 1224879); details: CellTox Green fluorescence; series mostly up to 76.8 µM; further: nearly all actives have a fitted effect of over 40% in size
How it was run: (§3)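 First, HepG2 cells (600/well) mixed with reagent were plated; second, after 5 h at 37 C they received compounds via pintool; third, fluorescence was measured at 0 h through 40 h at 8 h intervals.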

[6] = A CellTox Green Cytotoxicity Assay to monitor cytotoxicity in HEK293 cells - 40 hour (AID 1224871); details: CellTox Green fluorescence; series mostly up to 76.8 µM; further: nearly all actives have a fitted effect of over 45% in size
How it was run: (§4)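 Dead-cell fluorescence measured kinetically: asymmetric cyanine dye, HEK293, 600 cells/well, 5 h settle, 23 nL cpd/DMSO, 37 C, reads 0–40 h every 8 h.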

[7] = qHTS RealTime-Glo MT Cell Viability Assay in HepG2 cells - 8 hour (AID 1224873); details: RealTime-Glo luminescence; series mostly up to 76.8 µM; further: nearly all actives have a fitted effect of over 55% in size
How it was run: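 HepG2 cells mixed with RealTime-Glo MT reagents (NanoLuc plus cell-permeant prosubstrate) were seeded at 600 cells/well, incubated 5 h at 37 C/5% CO2, then pinned with compounds in DMSO; nonlytic luminescence tracked viability during 40 h treatment.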

[8] = A CellTox Green Cytotoxicity Assay to monitor cytotoxicity in HepG2 cells - 16 hour (AID 1224876); details: CellTox Green fluorescence; series mostly up to 76.8 µM; further: nearly all actives have a fitted effect of over 45% in size
How it was run: as §3

[9] = A CellTox Green Cytotoxicity Assay to monitor cytotoxicity in HepG2 cells - 24 hour (AID 1224878); details: CellTox Green fluorescence; series mostly up to 76.8 µM; further: nearly all actives have a fitted effect of over 45% in size; on Cytotoxicity: on the % scale 0 is the no-effect control and ±100 the full control effect
How it was run: as §3

[10] = A CellTox Green Cytotoxicity Assay to monitor cytotoxicity in HEK293 cells - 24 hour (AID 1224875); details: CellTox Green fluorescence; series mostly up to 76.8 µM; further: nearly all actives have a fitted effect of over 45% in size
How it was run: as §4

[11] = A CellTox Green Cytotoxicity Assay to monitor cytotoxicity in HEK293 cells - 32 hour (AID 1224881); details: CellTox Green fluorescence; series mostly up to 76.8 µM; further: nearly all actives have a fitted effect of over 40% in size
How it was run: as §4

[12] = qHTS RealTime-Glo MT Cell Viability Assay in HEK293 cells - 0 hour (AID 1224880); details: RealTime-Glo luminescence; series mostly up to 76.8 µM; further: nearly all actives have a fitted effect of over 45% in size
How it was run: as §2

[13] = qHTS assay to identify small molecule antagonists of the estrogen related receptor (ERR) signaling pathway from Tox21 library (AID 1224848); details: ERR reporter cell line, luciferase antagonist mode, 18 h; series mostly up to 92.4 µM; further: nearly all actives have a fitted effect of over 50% in size
How it was run: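 Tox21 10K compounds in DMSO tested for ERR pathway antagonism in NTP's ERR cell line; 18 h, 37 C exposure; ONE-Glo luminescence.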

[14] = qHTS RealTime-Glo MT Cell Viability Assay in HepG2 cells - 24 hour (AID 1224867); details: RealTime-Glo luminescence; series mostly up to 76.8 µM; further: nearly all actives have a fitted effect of over 50% in size
How it was run: (§5)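 Tox21 10K library screened in qHTS format on HepG2 cells carrying RealTime-Glo reagents. Compounds were added after a 5 h preincubation, and the luminescent signal from continuous culture was measured repeatedly during 40 h treatment.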

[15] = qHTS RealTime-Glo MT Cell Viability Assay in HepG2 cells - 32 hour (AID 1224877); details: RealTime-Glo luminescence; series mostly up to 76.8 µM; further: nearly all actives have a fitted effect of over 55% in size
How it was run: as §5
Potency means the concentration at half of the fitted maximal effect; tags describe the fitted curve by direction and shape.

For CC(=O)[C@@]1(O)CC[C@H]2[C@@H]3CCC4=CC(=O)CC[C@]4(C)[C@H]3CC[C@@]21C, the Potency [1] was inconclusive: 1.79 µM [cytotoxic, single point], the Potency [2] was inconclusive: 9.77 µM [cytotoxic, full curve] and inconclusive: 9.52 µM [cytotoxic, partial curve] and the Potency [3] was inconclusive: 24.5 µM [cytotoxic, partial curve]. The Potency [4] was inconclusive: 7.76 µM [cytotoxic, full curve] and inconclusive: 9.52 µM [cytotoxic, partial curve] and the Potency [5] was inconclusive: 54.9 µM [activator, partial curve, poor fit].

For O=[N+]([O-])C(CO)(CO)CO, the Potency [1] was “inactive”, the Potency [2] was inconclusive: 49 µM [rising, partial curve] and the Potency [4] was inconclusive: 49 µM [rising, partial curve].

With CC/C=C\C/C=C\C/C=C\CCCCCCCC(=O)OC the Potency [1] was inconclusive: 127 µM [cytotoxic, single point] and the Potency [6] was inconclusive: 54.9 µM [activator, single point].

With O=C(Oc1ccccc1)c1ccc(O)cc1 the Potency [1] was inconclusive: 128 µM [cytotoxic, single point] and inconclusive: 127 µM [cytotoxic, single point], the Potency [2] was inconclusive: 55.3 µM [cytotoxic, partial curve, poor fit] and the Potency [3] was inconclusive: 55.3 µM [cytotoxic, partial curve, poor fit]. The Potency [7] was “inactive”, the Potency [8] was inconclusive: 54.9 µM [activator, single point] and the Potency [9] was inconclusive: 54.9 µM [activator, single point]. For the same compound, the Potency [5] was inconclusive: 54.9 µM [activator, single point].

For CC1(C)NC(=O)N(c2ccc([N+](=O)[O-])c(C(F)(F)F)c2)C1=O, the Potency [1] was active: 28.4 µM, the Potency [2] was active: 24.5 µM and inconclusive: 26.8 µM [cytotoxic, partial curve, poor fit] and the Potency [3] was inconclusive: 30.9 µM [cytotoxic, partial curve] and inconclusive: 23.9 µM [cytotoxic, partial curve, poor fit]. The Potency [4] was inconclusive: 23.9 µM [cytotoxic, partial curve, poor fit] and the Potency [10] was “inactive”.

In the case of CCCCCCC(O)CCOC(C)=O (stereo not given), the Potency [1] is reported as “inactive” and the Potency [7] is reported as “inactive”.

With CC(C)C(OC(=O)c1ccccc1)C(C)(C)COC(=O)c1ccccc1 (stereo not given) the Potency [1] was inconclusive: 56.6 µM [cytotoxic, partial curve], the Potency [3] was inconclusive: 38.9 µM [cytotoxic, partial curve, poor fit] and the Potency [4] was inconclusive: 49 µM [cytotoxic, partial curve, poor fit].

For CC(C)(C)c1ccc(OC2CCCCC2O)cc1 (stereo not given), the Potency [1] was active: 71.3 µM, the Potency [2] was inconclusive: 54.9 µM [cytotoxic, single point] and the Potency [3] was inconclusive: 54.9 µM [cytotoxic, single point]. The Potency [8] was inconclusive: 61.6 µM [activator, single point], the Potency [9] was inconclusive: 61.6 µM [activator, single point] and the Potency [5] was inconclusive: 54.9 µM [activator, single point]. The Potency [11] was active: 49 µM.

For O=C(N[C@@H](c1ccccc1)[C@@H]1CCCCN1)c1cccc(C(F)(F)F)c1Cl, the Potency [1] was inconclusive: 127 µM [cytotoxic, single point], the Potency [6] was inconclusive: 54.9 µM [activator, single point] and the Potency [3] was inconclusive: 38.9 µM [cytotoxic, partial curve]. The Potency [10] was inconclusive: 54.9 µM [activator, single point], the Potency [8] was inconclusive: 61.6 µM [activator, single point] and the Potency [9] was inconclusive: 43.6 µM [activator, partial curve, poor fit]. The Potency [12] was inconclusive: 34.7 µM [rising, partial curve, poor fit] and the Potency [11] was inconclusive: 54.9 µM [activator, single point].

With C=C1CC[C@H](O)CC1=C/C=C1\CCC[C@]2(C)[C@@H]([C@H](C)/C=C/[C@H](C)C(C)C)CC[C@@H]12 the Potency [1] was inconclusive: 99.9 µM [cytotoxic, partial curve] and inconclusive: 113 µM [cytotoxic], the Potency [6] was inconclusive: 54.9 µM [activator, single point] and the Potency [3] was inconclusive: 54.5 µM [cytotoxic, single point]. For the same compound, the Potency [4] was active: 48.5 µM and active: 49 µM, the Potency [9] was inconclusive: 61.6 µM [activator, partial curve, poor fit] and the Potency [5] was inconclusive: 61.6 µM [activator, single point].

With Cc1ccc2c(ccc3ccccc32)c1 the Potency [1] was inconclusive: 127 µM [cytotoxic, single point], the Potency [2] was inconclusive: 11 µM [cytotoxic, full curve] and the Potency [4] was inconclusive: 22 µM [cytotoxic, partial curve].

In the case of Cc1ccc(O)cc1, the Potency [1] is reported as “inactive”, the Potency [3] is reported as “inactive” and the Potency [9] is reported as “inactive”. For the same compound, the Potency [5] was inconclusive: 53.9 µM [activator, single point].

With CCNc1ccccc1 the Potency [1] was inconclusive: 129 µM [cytotoxic, partial curve, poor fit] and the Potency [6] was inconclusive: 55.9 µM [activator, single point].

In the case of C[C@]12CC[C@@H]3c4ccc(O)cc4CC[C@H]3[C@@H]1CC[C@H]2O, the Potency [1] is reported as inconclusive: 51.3 µM [cytotoxic, full curve], the Potency [6] is reported as inconclusive: 55.9 µM [activator, single point] and the Potency [3] is reported as inconclusive: 5.59 µM [cytotoxic, full curve] and inconclusive: 12.3 µM [cytotoxic, full curve]. For the same compound, the Potency [10] was inconclusive: 22.2 µM [activator, single point] and the Potency [11] was inconclusive: 22.2 µM [activator, single point].

With O=C(Oc1ccccc1)c1ccccc1C(=O)Oc1ccccc1 the Potency [1] was inconclusive: 113 µM [cytotoxic, single point], the Potency [7] was inconclusive: 43.6 µM [falling, partial curve] and the Potency [11] was inconclusive: 0.49 µM [activator, single point].

For Cc1c(C)c([N+](=O)[O-])c(C(C)(C)C)c([N+](=O)[O-])c1C, the Potency [1] was inconclusive: 127 µM [cytotoxic, single point] and the Potency [10] was “inactive”.

In the case of O=Cc1ccc(Cl)c([N+](=O)[O-])c1, the Potency [1] is reported as “inactive”, the Potency [2] is reported as inconclusive: 19.5 µM [cytotoxic, partial curve, poor fit] and the Potency [3] is reported as “inactive”. The Potency [4] was inconclusive: 21.9 µM [cytotoxic, full curve], the Potency [9] was “inactive” and the Potency [5] was inconclusive: 54.9 µM [activator, single point]. For the same compound, the Potency [12] was “inactive”.

In the case of Clc1ccc(Sc2cc(Cl)c(Cl)cc2Cl)cc1, the Potency [1] is reported as inconclusive: 113 µM [cytotoxic, partial curve, poor fit], the Potency [3] is reported as inconclusive: 53.5 µM [cytotoxic, partial curve, poor fit] and the max response [4] is reported as inactive: -26.8% and inactive: 1%.

For Nc1ccc(N)c([N+](=O)[O-])c1, the Potency [1] was inconclusive: 63.5 µM [cytotoxic, partial curve], the Potency [2] was inconclusive: 11 µM and the Potency [7] was inconclusive: 38.9 µM [phenotype inactive, partial curve, poor fit]. For the same compound, the Potency [4] was inconclusive: 11 µM [rising, full curve, poor fit] and the Potency [12] was inconclusive: 54.9 µM [falling, partial curve, poor fit].

For CC(C)CC(C)CC(C)CC(C)COC(=O)c1ccccc1C(=O)OCC(C)CC(C)CC(C)CC(C)C (stereo not given), the Potency [13] was “inactive”.

For CO[C@H]1C=CO[C@@]2(C)Oc3c(C)c(O)c4c(O)c(c5c(c4c3C2=O)=NC2(CCN(CC(C)C)CC2)N=5)NC(=O)/C(C)=C\C=C/[C@H](C)[C@H](O)[C@@H](C)[C@@H](O)[C@@H](C)[C@H](OC(C)=O)[C@@H]1C, the Potency [13] was active: 30 µM, the Potency [14] was inconclusive: 47.9 µM [falling, partial curve] and the Potency [3] was active: 42.7 µM. For the same compound, the Potency [7] was inconclusive: 47.9 µM [falling, partial curve], the Potency [15] was inconclusive: 53.8 µM [cytotoxic, partial curve, poor fit] and the Potency [9] was inconclusive: 53.8 µM [activator, partial curve, poor fit]. The Potency [12] was inconclusive: 53.8 µM [falling, partial curve, poor fit].

With Nc1ccc(NCCO)c([N+](=O)[O-])c1 the Potency [1] was active: 80 µM and the Potency [8] was “inactive”.

In the case of O=Cc1cccc(Br)c1, the Potency [13] is reported as “inactive”.

With CC[C@H]1OC(=O)[C@H](C)[C@@H](O[C@H]2C[C@@](C)(OC)[C@@H](O)[C@H](C)O2)[C@H](C)[C@@H](O[C@@H]2O[C@H](C)C[C@H](N(C)C)[C@H]2O)[C@](C)(O)C[C@@H](C)/C(=N\OCOCCOC)[C@H](C)[C@@H](O)[C@]1(C)O the Potency [13] was inconclusive: 36 µM [inhibitor, partial curve, poor fit].

In the case of COc1ccc2[nH]c(S(=O)Cc3ncc(C)c(OC)c3C)nc2n1 (stereo not given), the Potency [13] is reported as inconclusive: 26.6 µM [inhibitor, partial curve].

In the case of CC(=O)Oc1cc2c(s1)CCN(C(C(=O)C1CC1)c1ccccc1F)C2 (stereo not given), the Potency [13] is reported as “inactive”.

For Cc1ccc2nc(N)[nH]c(=O)c2c1Sc1ccncc1, the Potency [13] was inconclusive: 9.44 µM [inhibitor, full curve], the Potency [14] was inconclusive: 26.8 µM [falling, partial curve, poor fit] and the Potency [2] was inconclusive: 5.35 µM [cytotoxic, full curve]. The Potency [7] was inconclusive: 13.4 µM [falling, partial curve].
